Patent US20070142318A1, “Compositions, methods and kits for repressing virulence in gram positive bacteria” (priority 2004, published 2007)

Test system: CodY A207V A207V (Bacillus subtilis)
Test: EMSA
Conditions: GTP + ILV; also >500 without effectors

## dpp promoter region
  Kd: > 500 nM
